Measurements as given in the supplement of paper PMC10126150.
Values marked as one replicate rest on one cluster of the flow cell; about a third of the high ones do not repeat.

System: ATP
Assay: switch fluorescence ratio, 500 uM ATP over buffer (Cy3 cluster intensity, sum of 5 cycles each) (fold (ratio)); higher = stronger signal-on switching upon ATP binding; sequences stand for … in TCGTCGGCAGCGTCAGATGTGTATAAGAGACAGTTTTTTTTTTTTTTTTTTTTTTTTT…TC
Conditions: aptamer strand: ATP DNA aptamer (quencher-CACCTGGGGGAGTATTGCGGAGGAAGG + anchor), 100 nM annealed; ATP concentration: 500 uM; one replicate
Summary of the method: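 Values give the fluorescence ratio for each switch-domain sequence, averaged from per-cluster ratios of summed target-cycle to summed buffer-cycle Cy3 intensity. The Cy3-labelled switching-strand clusters sat on a modified Illumina MiSeq flow-cell, were annealed to 100 nM quencher-labelled ATP aptamer, and were imaged in selection buffer, then after 15 min with 500 uM ATP at 22 °C. Five cycles ran with NaOH stripping and re-annealing between them, and clusters outside 100-1000 RFU were excluded.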
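Further: ATP exposure 15 min at 22 °C before imaging.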

Row | Sequence | switch fluorescence ratio
1 | AGATTCAATC | 1
2 | AATTCGAAGC | 1.07
3 | GTTGGGTTAC | 1.48
4 | TGACATACAC | 1.33
5 | CGATGAGGCA | 1.03
6 | TTAATGGTGA | 0.979
7 | ACATCCGGTG | 1.07
8 | TGTTACCTGT | 1.04
9 | AAAGCTTAGT | 0.975
10 | CGGGAAGTGA | 0.974
11 | TTATTTTACG | 1.01
12 | GTTGACTTCC | 2.03
13 | GCTTTGTGTC | 0.992
14 | CCCGGAATGA | 2.2
15 | CACACTATGC | 1.13
16 | GATACACTTA | 0.976
17 | GTACCCCTGT | 1.01
18 | GGGTGTTTAA | 1.01
19 | GTCCCGCAGG | 2.13
20 | CGTTTATCCG | 1.06
21 | GATAATTTT | 1.08
22 | TCCCCGATAA | 1.64
23 | TTAGTATCAG | 1.02

Row | Sequence | switch fluorescence ratio
24 | AATTTACTGC | 1.05
25 | GATATTT | 0.976
26 | ATGCGGCCTG | 1.02
27 | TGCATGTGCC | 1.01
28 | TCAGGAACGA | 0.954
29 | ATCTACGCAG | 1.33
30 | CTTTGCAGG | 3.16
31 | AAGACACTGC | 0.983
32 | GAGGTGAGCA | 0.956
33 | CTTGGCGAAG | 0.993
34 | ATCAGCGGTA | 1.08
35 | TCCGGTAGGT | 0.958
36 | CGTCTATTTT | 0.997
37 | AAATTACCCG | 1.03
38 | TATTGTGTTG | 0.993
39 | TCCATTTGGG | 0.977
40 | ACACATGGGT | 1.01
41 | AGCAATGCTA | 1.92
42 | CGCAGGCTGG | 0.946
43 | GCCACTATGA | 0.993
44 | TGTGACAACG | 0.984
45 | CGCCCCTCTG | 1.41
46 | ACTGGTTTGT | 1.03

Row | Sequence | switch fluorescence ratio
47 | ACCTCTTTG | 0.991
48 | TTTAGCGCGC | 1.02
49 | TACGGGCGTA | 1.05
50 | ACGCTAAACT | 1.71
51 | CGGACATTGG | 1.02
52 | CCTACGATGT | 2.38
53 | TGGGTCTTTA | 1.02
54 | TAGTTTTGG | 0.989
55 | GGGCGTTGAA | 0.989
56 | ACGGTGGTGC | 0.996
57 | GCCGAAGGCA | 1
58 | AAGTGCTGGA | 1.02
59 | GTGAAACCTG | 1.08
60 | TGGGAAGTG | 0.985
61 | GACTGAGGAC | 1.04
62 | AGTCTATTAA | 0.983
63 | TTAGACAGTT | 0.959
64 | TTCTTATGGC | 1.05
65 | GGTATGATTT | 0.993
66 | AAGGGCCTCA | 0.982
67 | CATGATAGC | 1.02
68 | CTCGACTTGC | 1.08
69 | GCATGATCAG | 0.98

Row | Sequence | switch fluorescence ratio
70 | GAATGCTTCA | 0.964
71 | CAAATTCCGA | 1.07
72 | TGGCTCCCAG | 1.04
73 | CCGGAAGTAA | 5.1
74 | GAACCCTAGA | 1.02
75 | TTGGTTGGTC | 0.926
76 | TTGAAACTAC | 1.17
77 | GCAAGAAGTC | 1.02
78 | CTTTCGGGTA | 0.99
79 | ATTGGAAGTC | 1.02
80 | TGGAGGGG | 0.996
81 | ATTAAAGTAC | 1.19
82 | TGACGTTAAC | 1.07
83 | AGATGTCCCA | 0.967
84 | CAATACGAGA | 1.3
85 | GTTGAGCGAG | 1.03
86 | GAGGGAGCT | 1.04
87 | CGATCACTGG | 1.03
88 | ACTTTGAACG | 1.07
89 | ACGCCATGC | 3.27
90 | GCCTAATTGC | 1.07
91 | GCTTCCGGGA | 1.53
92 | GGCACTTAAT | 1.05

Row | Sequence | switch fluorescence ratio
93 | CTGTGATACG | 1.85
94 | AAAGTCTACC | 1.01
95 | CGATGCCCTG | 0.994
96 | TTATCTCAGC | 1.01
97 | ATATTTGTC | 0.996
98 | GTACTTAGGG | 1.02
99 | ATGTCCACAA | 1.21
100 | AGCTCAAGTA | 0.984
101 | TGTTGGCCGT | 1
102 | GCGATATCGT | 1.03
103 | CGAACGTTCA | 1.01
104 | TTGGATTGTA | 1.07
105 | TAGAGGTTTC | 0.931
106 | TGTCGCTTTG | 1.05
107 | ACAGTACCAT | 1.4
108 | CTAGACAGTA | 1.04
109 | GTACGGGCAG | 1.02
110 | GATGTACCCG | 1.07
111 | TGCTACTGG | 0.994
112 | GTGTCGAGTT | 1.01
113 | TAACGGAAC | 1.13
114 | TCTTCATACA | 1
115 | ATGACAAATC | 0.983

Row | Sequence | switch fluorescence ratio
116 | GTTTCTCAAA | 1.02
117 | AATCGCTCT | 0.976
118 | CCAACAAATT | 1.04
119 | CGGATTTTCC | 1.15
120 | TTAGTGTTT | 0.99
121 | GAGGCACGGT | 1.05
122 | CGAAAATCT | 0.993
123 | AAAGATCATG | 0.966
124 | TAGTGACGA | 1.04
125 | TGTCCTTGGT | 0.987
126 | GGGATGTCCT | 0.989
127 | TAAATGTTG | 0.995
128 | AAGCGGGA | 1.02
129 | GTTAACTGCA | 1.04
130 | CTCGCGCTTC | 1.98
131 | ATATGTGTCG | 1.05
132 | CTTTAACCAT | 0.971
133 | GGCGGGGGAT | 1.01
134 | TTGGCTAAGC | 0.946
135 | TATCAATTGG | 1.01
136 | ACGGGTCGTC | 0.993
137 | CACATTAATA | 1.07
138 | TTTGGCAGCT | 0.971

Row | Sequence | switch fluorescence ratio
139 | TTACTGGCGA | 1.01
140 | TAGGTTAT | 0.974
141 | TTAACCCTGA | 1.01
142 | CGCATCCAGG | 6.89
143 | ATAAAGCATG | 1
144 | GGCGTAACA | 1.02
145 | CTAGCTCTCG | 0.961
146 | TGCCAGATAC | 2
147 | GGCCCTAAGG | 0.931
148 | TCAAATACT | 1.05
149 | CAGCCGGATT | 1.05
150 | TTCAATATGA | 1.03
151 | TTGTCCCGTA | 1.06
152 | GTCCTATTCA | 0.987
153 | GGGTTGGCTT | 0.94
154 | GAGTAAAGAA | 0.944
155 | CTGGATTAGG | 1
156 | ATAGAAGCCT | 1.18
157 | CATTCACGTA | 1.17
158 | GTTCGGTTAG | 0.993
